# From the supplement of paper PMC3334620
# Whole data set: some 33,000 sequences, median “E-score (-0.5 to 0.5)” near -0.043, cut for the highest 2% near 0.37. Some of the results follow.
# Biological target: T1, Upc2 (UniProt Q12151)
# T1 sequence: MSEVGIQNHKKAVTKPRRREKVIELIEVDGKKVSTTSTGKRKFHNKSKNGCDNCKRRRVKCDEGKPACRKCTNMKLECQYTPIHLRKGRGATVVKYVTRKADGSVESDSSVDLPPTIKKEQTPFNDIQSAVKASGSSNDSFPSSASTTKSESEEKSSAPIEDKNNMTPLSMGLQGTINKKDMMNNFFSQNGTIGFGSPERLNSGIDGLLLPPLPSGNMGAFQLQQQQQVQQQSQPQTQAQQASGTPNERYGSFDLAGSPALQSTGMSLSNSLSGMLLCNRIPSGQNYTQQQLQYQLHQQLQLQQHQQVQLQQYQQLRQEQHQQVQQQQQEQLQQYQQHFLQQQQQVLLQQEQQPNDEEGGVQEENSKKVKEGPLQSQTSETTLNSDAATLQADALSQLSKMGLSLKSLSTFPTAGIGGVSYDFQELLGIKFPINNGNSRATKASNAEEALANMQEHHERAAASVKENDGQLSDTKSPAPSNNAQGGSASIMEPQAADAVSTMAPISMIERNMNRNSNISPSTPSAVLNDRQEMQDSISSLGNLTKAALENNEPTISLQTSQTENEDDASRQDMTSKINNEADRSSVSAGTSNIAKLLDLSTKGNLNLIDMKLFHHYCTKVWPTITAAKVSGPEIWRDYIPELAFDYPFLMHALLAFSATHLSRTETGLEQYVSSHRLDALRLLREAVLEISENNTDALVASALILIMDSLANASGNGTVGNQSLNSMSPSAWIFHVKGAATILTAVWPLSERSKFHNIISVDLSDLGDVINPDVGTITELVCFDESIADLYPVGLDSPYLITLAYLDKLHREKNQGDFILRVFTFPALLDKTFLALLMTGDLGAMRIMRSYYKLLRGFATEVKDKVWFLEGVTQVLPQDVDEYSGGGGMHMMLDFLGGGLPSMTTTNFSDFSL
# Assay: PBM E-score (8-mer binding enrichment) (E-score (-0.5 to 0.5)); higher = stronger / more preferred TF binding; most listed sequences are background and not binding sites
# Details: protein concentration: 200 nM; construct: GST-full length
# Procedure, shortened: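 Each ungapped eight-base word and its reverse complement, pooled, received an E-score from the Universal PBM Analysis Suite. Underlying scans, normalised with masliner, recorded fluorescent anti-GST bound to GST-tagged yeast transcription factors. These were applied at about 100-200 nM to universal all-10-mer Agilent arrays double-stranded by primer extension.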
row,Sequence,PBM E-score
1,TGCAAAAA,0.0592
2,GGGGATTA,-0.0834
3,ATTTCTCG,0.13
4,CCGGTTGA,-0.148
5,CGAGTATC,0.166
6,GCGCCAGC,-0.0758
7,ACAGGGGG,-0.307
8,AAATGGAT,-0.0355
9,ATCCCGGA,-0.306
10,CAACCAGC,-0.203
11,CACAGTCA,-0.154
12,ACGTACCC,0.203
13,CGTTTCAG,0.283
14,AGCATGAG,-0.253
15,CATTTACC,-0.152
16,CGTCAAAG,0.0448
17,CCTTATAA,0.0883
18,TCAGCGGA,-0.0114
19,GTGTGGGA,-0.122
20,CATTCATC,-0.219
21,CGAAAACG,0.219
22,AATATGTG,-0.0278
23,GCCTTATA,0.113
24,AATGATCT,-0.0128
25,CGGATGGA,-0.023

row,Sequence,PBM E-score
1,ACAACTCG,0.184
2,ATCGAACC,0.0815
3,ACAGTACC,-0.176
4,CCAAAAGC,-0.162
5,CAGGCATC,-0.152
6,AGCATACC,-0.0372
7,AGGATTAT,-0.0741
8,ATAAGACG,0.2
9,ACCGCGCG,0.0243
10,TATCCTGA,-0.0206
11,ATTACCAG,-0.0156
12,ACATCTCA,-0.158
13,TTCTAGAA,0.0714
14,ACAACTGG,-0.171
15,ACGGGTCC,0.144
16,CGTCACAC,0.0317
17,CCCTCCAC,-0.279
18,CAGCAGGG,-0.124
19,GATATCCA,-0.0106
20,ATCAAAAA,-0.114
21,CGTGACTC,-0.0854
22,TACAAAAA,0.144
23,AACATTAG,0.0437
24,CGGGCCGC,0.0275
25,AGCAGGCG,-0.0505

row,Sequence,PBM E-score
1,GACGTTGA,-0.107
2,GCACAGGC,-0.0916
3,CAGACGGC,-0.244
4,CGGTGCAA,0.0724
5,TGCCGCAA,-0.0614
6,CTCACCAG,-0.183
7,ACCAAGTC,-0.00913
8,CCCCGACA,-0.3
9,AATTCCGT,0.0798
10,CAATTCAC,-0.0551
11,TGAGCACA,-0.22
12,ACGTACCT,0.257
13,CCTCACGC,-0.236
14,ACGCATGA,-0.00889
15,CTCAGCTA,-0.243
16,AGAAACTA,-0.199
17,TATGAGAA,-0.0454
18,AGGAACAT,-0.00387
19,CGGGCTAC,-0.0289
20,AGCTTTTA,0.163
21,CTAACTGA,-0.154
22,GATCAATA,-0.168
23,CGTCCACG,-0.112
24,CAAGTAGC,-0.085
25,ATAATTCG,0.24

row,Sequence,PBM E-score
1,CGAGATAC,0.239
2,GTGGTCAA,-0.112
3,GAAATACA,-0.0342
4,AAGAAGAG,-0.145
5,CTCTGGGA,-0.238
6,AGTCCACC,-0.223
7,AGTGGGCA,0.0532
8,ACCATGGA,-0.196
9,CGTGTCTA,-0.0877
10,GCGTGGAC,-0.181
11,GCGACGCA,0.108
12,TGTACTAA,0.0689
13,ACGCGAAC,0.237
14,AAAGCGGC,-0.0359
15,CTCTCTTA,0.095
16,CGAAGTTA,0.0759
17,ACTTTAAA,0.0868
18,AGACGTGG,-0.284
19,AGTGCTCA,-0.198
20,ACCGAGGT,0.169
21,CGAATAAC,0.178
22,GTGTTCAA,-0.00045
23,GAGCCAGC,-0.00989
24,CCTCACCG,-0.156
25,CCCCCGAC,-0.169

row,Sequence,PBM E-score
1,AATCCTGT,0.00487
2,CAAGCTCA,-0.152
3,AGCGGTGG,-0.251
4,CGATTATA,0.203
5,AAGTCCTC,-0.265
6,CGTTATTC,0.0151
7,AGCATGTA,0.0436
8,GCTGAGAA,-0.275
9,CTTATGAC,0.106
10,GAATTCGA,-0.139
11,ATAGAGAG,-0.266
12,TGTTGCAA,-0.0379
13,TATGAGCA,-0.133
14,GGTATACC,0.214
15,CACCGAGC,-0.0627
16,GGGGACCA,-0.288
17,AGTGTTCC,-0.0588
18,CCATGCAC,-0.262
19,ACTTTTCC,0.0008
20,CCCGCGAC,-0.0906
21,AGTTAGCG,0.0707
22,CAAGCCCC,-0.133
23,GAGCGGCA,-0.106
24,CAGTGACA,-0.229
25,ATATAAAT,0.0307

row,Sequence,PBM E-score
1,AACCCAAA,0.0131
2,ACTAGCTG,0.0513
3,GGACTCAA,-0.229
4,ATAACGAG,0.191
5,GGAACGCA,0.174
6,CACTTAGA,-0.135
7,GTAACAGA,0.125
8,CGTTACAA,0.0563
9,ATGACGCG,0.116
10,CTCACTTA,-0.0558
11,CGCCCTAG,-0.158
12,CACGTGGA,-0.0559
13,AACTGTCC,-0.15
14,CTCGTAAA,0.482
15,CATGTTTC,-0.0562
16,TGATTGAA,0.174
17,ATTTATCA,-0.112
18,AGGCCCGA,-0.0488
19,ACGAAAGA,0.244
20,CCCGGCAG,-0.181
21,CAAGGATC,0.0517
22,ACTAGATC,-0.162
23,ATGCGTGG,-0.0641
24,ACCTAACG,-0.0308
25,ATCCGTGA,0.0937

row,Sequence,PBM E-score
1,ATCTAAGG,-0.13
2,GACCTCGA,0.0548
3,TTGAACAA,-0.0894
4,AAAGTGTA,-0.071
5,TCGCTTAA,0.403
6,AGACCGTA,0.287
7,AAAAGATG,-0.00218
8,CAGAACCA,-0.212
9,CCGAGATC,0.018
10,GATCGTAA,0.396
11,AACGCGAT,0.2
12,ATTAGAAT,0.0107
13,CGCCAGAG,-0.264
14,CTGCAAAA,-0.0253
15,ACGCATTG,-0.0885
16,ATTACAGC,-0.0232
17,GACGTCGC,0.0521
18,CATGGGCC,-0.265
19,CCCAACTC,-0.0141
20,CAAGGTTC,-0.216
21,AAAACCTT,-0.237
22,GACAAGAA,-0.0295
